Source: PubChem BioAssay AID686979 (National Center for Advancing Translational Sciences (NCATS), 2013)
Among all 420,000 compounds or so, about 50,000 (12%) were called active. The inconclusive results got no clear call from the source; some entries with a clear call stand among them for comparison. The call rests on the fitted dose curve; in most records, active means well fitted inhibition curve with a large enough effect; inconclusive means small, poorly fitted or top-dose-only effect; inactive means flat fitted curve, though single readings scatter. Potencies of inconclusive entries are left out as doubtful fits.

assay: qHTS for Inhibitors of human tyrosyl-DNA phosphodiesterase 1 (TDP1): qHTS in cells in presence of CPT; conditions: chicken DT40 Tdp1-/-;hTDP1 cells + 20 nM CPT, ATP luminescence, 48 h; activity change, negative = growth inhibition: at 46.2 µM (top of the series) unless noted; further: nearly all actives have a fitted effect of over 55% in size
Outline: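 Chicken DT40 Tdp1-/- cells stably complemented with human TDP1 were seeded at 400 cells/well in medium containing 20 nM camptothecin, exposed to pin-transferred compounds, and grown at 37 °C for at least 48 hr. Viability was read as ATP luminescence.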
On the % scale 0 is the no-effect control and ±100 the full control effect; potency means the concentration at half of the fitted maximal effect; tags describe the fitted curve by direction and shape.

Structure (SMILES) | Potency | activity change, negative = growth inhibition
O=C(Nc1cc(Cl)ccc1N1CCOCC1)c1ccc(F)c(S(=O)(=O)N2CCOCC2)c1 | inconclusive [inhibitor, single point] | –
O=C(CN1C(=O)c2ccc(Br)cc2C1=O)NCC1CCCO1 (stereo not given) | inactive | –
COc1ccc(NC(=O)Nc2ccc(C)cc2OC(F)F)cc1OC | inconclusive [inhibitor, single point] | –
N#Cc1c(NC(=O)CSC2=NCCS2)sc2c1CCCC2 | inconclusive [inhibitor, partial curve] | –
COC(=O)C(C)N(C(=O)c1ccc(C(=O)c2ccccc2)cc1)c1c(C)cccc1C (stereo not given) | active: 12.6 µM | –
Cc1ccc(-c2ccc(/C=C3\C(=O)ON=C3c3ccccc3)o2)c([N+](=O)[O-])c1 | active: 8.2 µM | –
Cc1ccc(Cn2ccc(NC(=O)c3c(-c4ccccc4Cl)noc3C)n2)cc1 | inactive | –
COc1cc(OC)c2ccc(=O)oc2c1C(CCN1CCCC1)c1ccc(N(C)C)cc1 (stereo not given) | active: 9.2 µM | –
C(=C\c1ccco1)/c1nc2ccccc2[nH]1 | inconclusive [inhibitor, single point] | –
O=C(O)CC(O)(CC(=O)O)C(=O)O | – | inconclusive: -7.04% [inhibitor]
Cc1ccc(NS(=O)(=O)c2cc([N+](=O)[O-])ccc2N/N=C/c2sc(N3CCOCC3)nc2-c2ccccc2)c(C)c1 | active: 20.6 µM | –
CCC(=Nc1ccccc1)C1=C(O)CCCC1=O | inactive | –
CC(C)CC(C(=O)NC(C)(C)C)N(Cc1cccs1)C(=O)c1snc(C(N)=O)c1N (stereo not given) | inconclusive [inhibitor, single point] | –
COc1ccc(OC)c(NC(=O)CSc2nc3[nH]c(=O)[nH]c(=O)c3s2)c1 | inactive | –
CCc1ccc(-c2nn(-c3ccccc3)cc2CSC(=N)N)cc1 | active: 16.4 µM | –
CCOC(=O)CC(NC(=O)Cn1nnc(-c2ccccc2F)n1)c1ccccc1Cl (stereo not given) | inconclusive [inhibitor, single point] | –
COc1ccc(S(=O)(=O)N(CC(N)=O)C2CCCCC2)cc1Cl | active: 23.1 µM | –
COc1ccc(CCNc2ccc(C(CC(N)=O)NC(=O)Cc3ccc(Br)cc3)cc2[N+](=O)[O-])cc1 (stereo not given) | inconclusive [inhibitor, partial curve] | –
COc1cc2nc(SCc3ccc(Cl)cc3Cl)n(Cc3cccs3)c(=N)c2cc1OC | inconclusive [inhibitor, single point] | –
Cc1ccc(N2CCN(C(=O)c3cn(C)c4ccc(S(=O)(=O)N(C)C)cc4c3=O)CC2C)cc1 (stereo not given) | inactive | –
CC1CCN(C(=O)CSc2nnc(Cc3cccn3C)n2-c2ccc(F)cc2)CC1 | inconclusive [inhibitor, single point] | –
CCOC(=O)CC1=C(C#N)C(c2cccnc2)C(C(=O)OCC)=C(N)O1 (stereo not given) | inactive | –
O=c1oc(-c2ccccc2Cl)nc2ccsc12 | inconclusive [inhibitor, single point] | –
COc1cccc(NC(=O)CN(C)CC(=O)Nc2ccc(C)c([N+](=O)[O-])c2)c1 | inconclusive [inhibitor, single point] | –
Cc1ccc2c(c1)N(CC(=O)N1CCCC1)C(=O)CO2 | inactive | –

Structure (SMILES) | Potency | activity change, negative = growth inhibition
OC1(c2cccs2)CN(c2ccccc2)C2=[N+]1CCCC2 (stereo not given) | inactive | –
Cc1nc(Nc2ccc(Cl)cc2)c2nnn(Cc3ccccc3)c2n1 | inconclusive [inhibitor, single point] | –
CCS(=O)(=O)c1ncc(N(Cc2ccco2)Cc2ccccc2F)c(C(=O)Nc2cccc(Cl)c2)n1 | inconclusive [inhibitor, single point] | –
O=C(CCn1cccn1)N1CCCC(N2CCN(c3cccc(C(F)(F)F)c3)CC2)C1 (stereo not given) | inconclusive [inhibitor, partial curve] | –
Cn1c(O)c(N=NC(=O)c2cccc(S(=O)(=O)N3CCCCC3)c2)c2ccccc21 | active: 16.4 µM | –
CC(=O)c1ccc(NC(=O)CSc2nc(=O)n(Cc3ccncc3)c3c2CCC3)cc1 | inactive | –
Cc1ccc(C)c(/C=N/n2cc(-c3ccccc3)[nH]c2=S)c1 | inconclusive [inhibitor, single point] | –
CCC(C(=O)Nc1ccccc1-c1ccccc1)c1ccccc1 (stereo not given) | inactive | –
CC(=O)Nc1nc(-c2ccc([N+](=O)[O-])cc2)cs1 | inconclusive [inhibitor, full curve, poor fit] | –
Cn1nc(C(F)(F)F)c(-c2cccc(C(F)(F)F)c2)c1NC(=O)c1ccco1 | inactive | –
CC(C)(Nc1ccccc1)C(=O)c1ccccc1 | inactive | –
Cc1[nH]c2ccccc2c1C1=NNC(=Nc2ccc(F)cc2)SC1 | inconclusive [inhibitor, partial curve] | –
COc1cccc(NC(=O)CN(C)C(=O)c2c(C)nn(Cc3ccc(C)cc3)c2Cl)c1 | inconclusive [inhibitor, single point] | –
Cc1ncc(C(O)c2ccc(N(C)C)cc2)n1Cc1ccccc1 (stereo not given) | inconclusive [inhibitor, partial curve] | –
COc1ccc(S(=O)(=O)N2CCN(C(=O)CCNC(=O)c3ccccc3Cl)CC2)cc1 | inactive | –
Cc1nnc(SCCn2c(N(C)Cc3ccccc3)nc3c2c(=O)[nH]c(=O)n3C)s1 | inactive | –
COc1ccc2oc(-c3cccc(NC(=O)CSc4ccc(Cl)cc4)c3)nc2c1 | active: 20.6 µM | –
Cc1nc(N)c(CC(Br)CBr)c(Cl)n1 (stereo not given) | active: 8.2 µM | –
COc1ccc(-c2cc(C(=O)Nc3c(C)n(C)n(-c4ccccc4)c3=O)c3ccccc3n2)cc1OC | inconclusive [inhibitor, single point] | –
CCCNC(=O)Cn1c(-c2ccc(F)cc2)cc(C(=O)OCC)c1C | inconclusive [inhibitor, single point] | –
COc1ccc(Cn2c(=O)[nH]c3cc(C(=O)N4CCN(c5ccccn5)CC4)ccc3c2=O)cc1 | active: 14.6 µM | –
CCCn1c(SCC(=O)NCCc2ccccc2)nnc1-c1ccco1 | inactive | –
O=C(CN1N=C(c2ccc(Cl)cc2)CCC1=O)NCCc1ccccc1 | inconclusive [inhibitor, partial curve] | –
Cc1cc(OCCSc2nnc(-c3cccs3)n2C)ccc1Cl | inconclusive [inhibitor, single point] | –
O=C(NNCNNC(=O)c1ccncc1)c1ccncc1 | inconclusive [inhibitor, single point] | –

Structure (SMILES) | Potency | activity change, negative = growth inhibition
CCOC(=O)Cc1nn2c(=O)cc(C)nc2s1 | inactive | –
O=C1CN(C(=O)c2ccccc2[N+](=O)[O-])C(c2ccccc2)c2cc(Br)ccc2N1 (stereo not given) | active: 20.6 µM | –
CCOC(=O)c1c(NC(=O)CCC(=O)N(CC)CC)sc2c1CC(C)(C)OC2 | inconclusive [inhibitor, single point] | –
CC(C)CNC(=S)Nc1ccc(Oc2ccccc2)cc1 | inconclusive [inhibitor, single point] | –
Cc1cc(N2C(=O)C(O)=C(C(=O)c3cc4ccccc4o3)C2c2cccc(Cl)c2)no1 (stereo not given) | inconclusive [inhibitor, single point] | –
COc1cc(C(C(=O)NC2CCCCC2)N(Cc2cccs2)C(=O)Cc2c[nH]c3ccccc23)cc(OC)c1OC (stereo not given) | active: 23.1 µM | –
Cc1ccc(CSCC(=O)Nc2cc(S(=O)(=O)N3CCOCC3)ccc2OC(C)C)cc1 | inconclusive [inhibitor, single point] | –
COc1ccc(C(=O)CC(=O)C(=O)Nc2ccccc2Cl)cc1 | active: 13 µM | –
Cc1ccc2cc(C3CC(c4ccco4)=NN3S(=O)(=O)c3ccccc3)c(Cl)nc2c1 (stereo not given) | inconclusive [inhibitor, single point] | –
O=C(CN1CCN(Cc2ccc(F)cc2)CC1)Nc1ccccc1F | inactive | –
CCc1c(C)nc2nncn2c1NCc1ccc(Cl)cc1 | active: 8.2 µM | –
Cc1ccc2c(c1)c1c(n2CC(O)CNC(CO)(CO)CO)CCCC1 (stereo not given) | inconclusive [inhibitor, single point] | –
COc1ccc(CC(=O)NCC(c2ccc(OC)cc2)N(C)C)cc1 (stereo not given) | inactive | –
CCOC(=O)C1=C(CNCc2ccccc2Cl)NC(=O)NC1c1cccc([N+](=O)[O-])c1 (stereo not given) | inconclusive [inhibitor, single point] | –
Cc1ccc(NC(=O)COC(=O)c2cccc(C)c2[N+](=O)[O-])cc1S(=O)(=O)N1CCCCC1 | active: 16.4 µM | –
O=C(NCC(c1ccco1)N1CCCC1)c1cc2cc(Cl)ccc2o1 (stereo not given) | active: 18.4 µM | –
Cc1ccc(S(=O)(=O)N=Nc2c(O)[nH]c3ccccc23)cc1C | inactive | –
Cc1ccc(NC(=O)Cn2nc(Cc3ccncc3)c3ccccc3c2=O)c(Cl)c1 | inactive | –
CS(=O)(=O)c1ccc(-c2csc(-c3cccnc3)n2)cc1 | inactive | –
CCc1ccccc1NC(=O)CN1CCN(C(=O)CN2C(=O)NC3(CCCCC3C)C2=O)CC1 (stereo not given) | inconclusive [inhibitor, partial curve] | –
CCOc1ccc(CCN2CN(CC)CNC2=S)cc1OCC | inactive | –
Nc1nonc1-n1nnc(C(=O)N/N=C/c2ccco2)c1CSc1ccc(Cl)cc1 | inconclusive [inhibitor, single point] | –
CC1(C)Cc2c(sc3nc(SCC(=O)O)nc(N)c23)CO1 | inactive | –
CC(=O)Nc1ccccc1S(=O)(=O)CC1CC1(Cl)Cl (stereo not given) | inactive | –
S=C1NCN(Cc2ccco2)CN1Cc1ccco1 | inconclusive [inhibitor, single point] | –
